From the supplement of paper PMC8728848
The list shows a part of the results.

How the values were obtained:
Experiment in all cases: glycan array binding signal (z-score within array); higher = stronger binding
Conditions in all cases: glycan notation: IUPAC condensed, linker removed
[1] = molecular target: Gal(b1-3)GlcNAc(b1-3)Gal(b1-3)GlcNAc
Method in brief: (§1)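 The Consortium for Functional Glycomics database supplied 3228 glycan arrays, of which those lacking an available protein sequence were dropped. The binding signal, a within-array Z-score, was averaged across arrays of the same protein sequence and across linkers. Negative scores can be read as non-binding.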

[2] = molecular target: Gal(b1-3)GlcNAc(b1-3)Gal(b1-4)Glc
Method in brief: as §1

[3] = molecular target: Gal(b1-3)GlcNAc(b1-3)Gal(b1-4)GlcNAc
Method in brief: as §1

[4] = molecular target: Gal(b1-3)GlcNAc(b1-3)Gal(b1-4)GlcNAc(b1-6)[Gal(b1-3)GlcNAc(b1-3)]Gal(b1-4)Glc
Method in brief: as §1

[5] = molecular target: Gal(b1-3)GlcNAc(b1-3)Gal(b1-4)[Fuc(a1-3)]GlcNAc(b1-6)[Gal(b1-3)GlcNAc(b1-3)]Gal(b1-4)Glc
Method in brief: as §1

[6] = molecular target: Gal(b1-3)GlcNAc(b1-3)GalNAc
Method in brief: as §1

[7] = molecular target: Gal(b1-3)GlcNAc(b1-6)Gal(b1-4)GlcNAc
Method in brief: as §1

[8] = molecular target: Gal(b1-3)GlcNAc(b1-6)GalNAc
Method in brief: as §1

Gal(b1-3)GlcNAc6S = molecular target: Gal(b1-3)GlcNAc6S
Method in brief: as §1

[9] = molecular target: Gal(b1-3)[Fuc(a1-4)]GlcNAc
Method in brief: as §1

[10] = molecular target: Gal(b1-3)[Fuc(a1-4)]GlcNAc(b1-2)Man(a1-3)[Gal(b1-3)[Fuc(a1-4)]GlcNAc(b1-2)Man(a1-6)]Man(b1-4)GlcNAc(b1-4)[Fuc(a1-6)]GlcNAc
Method in brief: as §1

[11] = molecular target: Gal(b1-3)[Fuc(a1-4)]GlcNAc(b1-3)Gal(b1-3)[Fuc(a1-4)]GlcNAc
Method in brief: as §1

[12] = molecular target: Gal(b1-3)[Fuc(a1-4)]GlcNAc(b1-3)Gal(b1-4)GlcNAc
Method in brief: as §1

[13] = molecular target: Gal(b1-3)[Fuc(a1-4)]GlcNAc(b1-3)Gal(b1-4)[Fuc(a1-3)]GlcNAc
Method in brief: as §1

[14] = molecular target: Gal(b1-3)[Fuc(a1-4)]GlcNAc(b1-6)GalNAc
Method in brief: as §1

[15] = molecular target: Gal(b1-3)[GlcNAc(b1-6)]GalNAc
Method in brief: as §1

[16] = molecular target: Gal(b1-3)[Neu5Ac(a2-6)]GalNAc
Method in brief: as §1

[17] = molecular target: Gal(b1-3)[Neu5Ac(a2-6)]GlcNAc(b1-6)Gal(b1-4)Glc
Method in brief: as §1

[18] = molecular target: Gal(b1-3)[Neu5Ac(b2-6)]GalNAc
Method in brief: as §1

Gal(b1-4)Gal = molecular target: Gal(b1-4)Gal
Method in brief: as §1

[19] = molecular target: Gal(b1-4)GalNAc(a1-3)[Fuc(a1-2)]Gal(b1-4)GlcNAc
Method in brief: as §1

[20] = molecular target: Gal(b1-4)GalNAc(b1-3)[Fuc(a1-2)]Gal(b1-4)GlcNAc
Method in brief: as §1

Gal(b1-4)Glc = molecular target: Gal(b1-4)Glc
Method in brief: as §1

Gal(b1-4)Glc6S = molecular target: Gal(b1-4)Glc6S
Method in brief: as §1

Gal(b1-4)GlcNAc = molecular target: Gal(b1-4)GlcNAc
Method in brief: as §1

[21] = molecular target: Gal(b1-4)GlcNAc(a1-6)Gal(b1-4)GlcNAc
Method in brief: as §1

Gal(b1-4)GlcNAc(b1-2)Man = molecular target: Gal(b1-4)GlcNAc(b1-2)Man
Method in brief: as §1

[22] = molecular target: Gal(b1-4)GlcNAc(b1-2)Man(a1-3)Man(b1-4)GlcNAc(b1-4)GlcNAc
Method in brief: as §1

[23] = molecular target: Gal(b1-4)GlcNAc(b1-2)Man(a1-3)[Gal(b1-4)GlcNAc(b1-2)Man(a1-6)]Man(b1-4)GlcNAc(b1-4)GlcNAc
Method in brief: as §1

[24] = molecular target: Gal(b1-4)GlcNAc(b1-2)Man(a1-3)[Gal(b1-4)GlcNAc(b1-2)Man(a1-6)]Man(b1-4)GlcNAc(b1-4)[Fuc(a1-6)]GlcNAc
Method in brief: as §1

[25] = molecular target: Gal(b1-4)GlcNAc(b1-2)Man(a1-3)[Gal(b1-4)GlcNAc(b1-2)][GlcNAc(b1-4)]Man(b1-4)GlcNAc(b1-4)GlcNAc
Method in brief: as §1

[26] = molecular target: Gal(b1-4)GlcNAc(b1-2)Man(a1-3)[GlcNAc(b1-2)Man(a1-6)]Man(b1-4)GlcNAc(b1-4)GlcNAc
Method in brief: as §1

[27] = molecular target: Gal(b1-4)GlcNAc(b1-2)Man(a1-3)[Man(a1-6)]Man(b1-4)GlcNAc(b1-4)GlcNAc
Method in brief: as §1

[28] = molecular target: Gal(b1-4)GlcNAc(b1-2)Man(a1-6)Man(b1-4)GlcNAc(b1-4)GlcNAc
Method in brief: as §1

[29] = molecular target: Gal(b1-4)GlcNAc(b1-2)Man(a1-6)[GlcNAc(b1-2)Man(a1-3)]Man(b1-4)GlcNAc(b1-4)GlcNAc
Method in brief: as §1

[30] = molecular target: Gal(b1-4)GlcNAc(b1-2)Man(a1-6)[Man(a1-3)]Man(b1-4)GlcNAc(b1-4)GlcNAc
Method in brief: as §1

[31] = molecular target: Gal(b1-4)GlcNAc(b1-2)[Gal(b1-4)GlcNAc(b1-4)]Man(a1-3)[Gal(b1-4)GlcNAc(b1-2)Man(a1-6)]Man(b1-4)GlcNAc(b1-4)GlcNAc
Method in brief: as §1

[32] = molecular target: Gal(b1-4)GlcNAc(b1-2)[Gal(b1-4)GlcNAc(b1-4)]Man(a1-3)[Gal(b1-4)GlcNAc(b1-2)[Gal(b1-4)GlcNAc(b1-6)]Man(a1-6)]Man(b1-4)GlcNAc(b1-4)GlcNAc
Method in brief: as §1

B1: ArathEULS3 (Arabidopsis thaliana), Q945P1 (protein)
chain: MEHHHQHHRHHQRDDGEDDRQSFGVPPPHVDAPPQPHGLYQSQPHFDPYAPTPQAPAPYRSETQFEPHAPPPYRSEPYFETPAPPPSFGHVSHVGHQSPNESYPPEHHRYGGYQQPSNSLLESHGDHSGVTHVAHHSSNQPQSSSGVYHKPDENRLPDNLAGLAGRATVKVYSKAEPNYNLTIRDGKVILAPADPSDEAQHWYKDEKYSTKVKDADGHPCFALVNKATGEAMKHSVGATHPVHLIRYVPDKLDESVLWTESKDFGDGYRTIRMVNNTRLNVDAYHGDSKSGGVRDGTTIVLWDWNKGDNQLWKIFPFILEQKLISEEDLNSAVDHHHHHH
glycan array binding signal (z-score) [1]: -0.295
glycan array binding signal (z-score) [2]: 0.175
glycan array binding signal (z-score) [3]: -0.398
glycan array binding signal (z-score) [4]: 0.468
glycan array binding signal (z-score) [5]: -0.003
glycan array binding signal (z-score) [6]: -0.179
glycan array binding signal (z-score) [7]: -0.253
glycan array binding signal (z-score) [8]: -0.26
glycan array binding signal (z-score) (Gal(b1-3)GlcNAc6S): 1.15
glycan array binding signal (z-score) [9]: -0.19
glycan array binding signal (z-score) [10]: -0.262
glycan array binding signal (z-score) [11]: -0.295
glycan array binding signal (z-score) [12]: -0.222
glycan array binding signal (z-score) [13]: -0.244
glycan array binding signal (z-score) [14]: 0.017
glycan array binding signal (z-score) [15]: -0.212
glycan array binding signal (z-score) [16]: -0.164
glycan array binding signal (z-score) [17]: -0.212
glycan array binding signal (z-score) [18]: -0.163
glycan array binding signal (z-score) (Gal(b1-4)Gal): 1.17
glycan array binding signal (z-score) [19]: -0.394
glycan array binding signal (z-score) [20]: -0.274
glycan array binding signal (z-score) (Gal(b1-4)Glc): -0.098
glycan array binding signal (z-score) (Gal(b1-4)Glc6S): 0.245
glycan array binding signal (z-score) (Gal(b1-4)GlcNAc): 0.233
glycan array binding signal (z-score) [21]: -0.17
glycan array binding signal (z-score) (Gal(b1-4)GlcNAc(b1-2)Man): -0.273
glycan array binding signal (z-score) [22]: -0.234
glycan array binding signal (z-score) [23]: 0.449
glycan array binding signal (z-score) [24]: -0.259
glycan array binding signal (z-score) [25]: -0.012
glycan array binding signal (z-score) [26]: 0.158
glycan array binding signal (z-score) [27]: -0.211
glycan array binding signal (z-score) [28]: 2.12
glycan array binding signal (z-score) [29]: -0.327
glycan array binding signal (z-score) [30]: 0.11
glycan array binding signal (z-score) [31]: -0.253
glycan array binding signal (z-score) [32]: -0.031
